Measurements taken from the RNAGym collection of RNA variant scans (doi:10.7554/elife.90254).
Read counts are not given, so values of variants with three or more changes are uncertain.

B1: OR4K15 (parent)
chain: GUUAACGGUCAUAGGCCAUGGAAACUAGGAGCACCAUUUCGCUGCCAGUGAAGAAAUGAACAAAGAAAAUCUGGGCCAGGCAGGCAUCAAAAGAAAUAGUCUUGCGCUCAACCAGAAAGUCUGUAAUCAUUUUAAGGGUA

Variants of: B1
Assay: self-cleavage, relative activity (ratio to wild type); higher = more cleavage; in vitro, sequencing; the parent is a self-cleaving ribozyme

| Variant | self-cleavage |
| --- | --- |
| A52G A67U A82G A129G | 0.54 |
| A52U U102A U108C | 0 |
| A52G A67G A82C A111G A118U | 0.01 |
| A52G A63G U108A | 0.02 |
| A54G U57C A62G A91U U120C | 0.9 |
| A52G U87C U97C A118G | 0.9 |
| A52G A92G U100C | 2.27 |
| A51G A82U U127C | 0.03 |
| A52G A78U A89G | 0.6 |
| A52U A67G A126G | 1.21 |
| A52G A54G A67U C85G | 0.73 |
| A51G A91G A94G | 1.41 |
| A52G U87C A96G A118G | 1.57 |
| A54U A59G A62G A69G | 0.86 |
| A54G A86G U139A | 0.46 |
| A52G A62G U70C A78U G80A A82G U132C | 0.12 |
| A52U A116U U131C | 0.19 |
| A54G A60U A78G U120A | 0.33 |
| A51G U72C A118G | 0.11 |
| A54U A64G A110U | 1.04 |
| A52G A68G G83A G106A | 0.02 |

| Variant | self-cleavage |
| --- | --- |
| A54G A118C A126G | 0.53 |
| A51G U57C A64G A82G | 0.37 |
| A51G A82G U97C | 0.55 |
| A52G A82U A135U | 0.1 |
| A51G U70C U127C U133C | 0.2 |
| A52G A69G U124C A126G | 0.46 |
| A54G A56U A69G A86U | 0.93 |
| A52C U87C A98U A118G | 1.15 |
| A52G A56G A94G | 0.52 |
| A54G A69G U97A U108C A118G | 0.01 |
| A54G U72A A90G A129G | 0.07 |
| A54G U87C U122A | 1.06 |
| A51G U72A A118G | 0.18 |
| A52G A117G U122C | 1.32 |
| A52G U87C U102C A129G | 1.83 |
| A54G A62C U127C | 1.09 |
| A51U G79U U120C | 0.05 |
| A54G C77U A78U A94G A117G | 0.89 |
| G53U A56G U103C G123A | 0.92 |
| A52U A66G U87C | 1.18 |
| A52G A59G U87A A90G | 0.12 |

| Variant | self-cleavage |
| --- | --- |
| A52G A56G A60U U122C A125G U131A | 0.9 |
| A52G A66U A116G | 0.24 |
| A54G U87C U102C A118G A134G G136A | 1.74 |
| A54G A91G U100C A118G | 2.03 |
| A52G A60G A86U | 0.91 |
| A52G A78G A86G A118G | 0.11 |
| A51G U102C A117G | 2.5 |
| A54G U72C A114U | 0.03 |
| A52G A55G A62G U72C | 0.36 |
| A52G C77U A82C | 0.15 |
| A51G A89C U108C | 0.04 |
| A51G A89G U122G | 2.19 |
| A52U A82G U120C U127C | 0.13 |
| A52G A60U U70C A95G | 1.55 |
| A52G A78G C113G U127A | 0.04 |
| A51G A78U U102A C113A | 0.04 |
| A54G A78U A89G U132C | 0.08 |
| A52G C88G A91G | 0.99 |
| A51G C76A U139A | 0.08 |
| A54G A59G A96G U120A | 2.53 |
| A51U A78U A111U | 0 |

| Variant | self-cleavage |
| --- | --- |
| A51U A60G A63G | 1.48 |
| A54G C107G U108C A114U A126G | 0 |
| A54U A63G A82G A126G | 0.4 |
| A54G A67G A94G | 0.86 |
| A52G A67G U124C | 1.58 |
| A52G A55U A94G A95G | 1.75 |
| A54G A68C A91U U108C | 0.02 |
| A52G A59G A68G A69G | 0.71 |
| A51U A78G A95G | 0.43 |
| A54G A68G G80A | 0.26 |
| A52G A69G A90G | 0.87 |
| A51G A95G U102C U108C | 0 |
| A52G A94G C105U U131C | 0.06 |
| A52G A68G U108G | 0.04 |
| A52G A56G U130C | 0.82 |
| A52G A60G A96U A118G | 1.19 |
| A51G U100C A125U | 2.76 |
| A52U A90U A110C | 0.24 |
| A52G U72A A110U | 0.21 |
| A54G A59G A91G | 0.53 |
| A51U A66G A67G U87C A90G | 0.56 |
